The source of these data is the BET-seq Pho4 binding data (Le et al. 2018).

The list shows a part of the results. These are noisy estimates, calculated here from bound and input reads.

This experiment has as its target T1, Pho4 (S. cerevisiae) (UniProt P07270).
T1 sequence: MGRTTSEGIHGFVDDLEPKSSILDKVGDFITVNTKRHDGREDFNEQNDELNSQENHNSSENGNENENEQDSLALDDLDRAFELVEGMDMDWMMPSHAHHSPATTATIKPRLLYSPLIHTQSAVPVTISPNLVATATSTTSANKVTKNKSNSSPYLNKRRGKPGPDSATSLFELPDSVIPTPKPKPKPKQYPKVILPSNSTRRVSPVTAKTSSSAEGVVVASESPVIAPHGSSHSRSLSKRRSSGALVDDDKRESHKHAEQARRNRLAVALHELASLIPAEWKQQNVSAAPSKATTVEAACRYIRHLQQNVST
In words: relative binding free energy (BET-seq); higher = weaker binding. The settings on record: reference: library average.
Regarding TTTCACACGTGGTGGA, the “relative binding free energy” value turned out to be 0.12 kcal/mol.
To TTGGTCACGTGCGGGA belongs 0.08 kcal/mol; to GTTGTCACGTGCGCGT, -0.02 kcal/mol.
To GTGGTCACGTGCGTTT belongs 0.2 kcal/mol; to GAGTGCACGTGACATG, 0.2 kcal/mol.
The result for GGGTCCACGTGTATGG reads 0.09 kcal/mol.
As for CGTTACACGTGAAGTT, the “relative binding free energy” value stood at 0.25 kcal/mol.
Regarding AATAGCACGTGTTAGG, the “relative binding free energy” value was -0.05 kcal/mol.
The result for ACCTGCACGTGTGTTG reads 0.08 kcal/mol.
Consider CTGTTCACGTGGGAGT, for which the “relative binding free energy” value was 0.07 kcal/mol.
On to AATGACACGTGGGTGA, for which the “relative binding free energy” value is 0.09 kcal/mol.
In the case of TTTGTCACGTGAATCG, the “relative binding free energy” value came out at 0.28 kcal/mol.
Turning to GTTAACACGTGTTTTT, the “relative binding free energy” value worked out at 0.08 kcal/mol.
Turning to AAATGCACGTGTTATG, the “relative binding free energy” value is -0.04 kcal/mol.
Regarding GTGTACACGTGTAAGT, the “relative binding free energy” value turned out to be 0.16 kcal/mol.
Take GGGTACACGTGGTCTA: the “relative binding free energy” value worked out at 0 kcal/mol.
As to AGTCACACGTGGGTGT, the “relative binding free energy” value is -0.1 kcal/mol.
For TTTTGCACGTGAGACG, the “relative binding free energy” value stood at 0.16 kcal/mol.
The result for GATGTCACGTGGGGCC reads 0.12 kcal/mol; that for TTGTACACGTGGCGTA, -0.14 kcal/mol; that for TGCTGCACGTGAGTTT, 0.21 kcal/mol.
Consider TGTTTCACGTGGAGAC, for which the “relative binding free energy” value is 0.2 kcal/mol.
To GGACTCACGTGGGAAG belongs 0.27 kcal/mol.
For ATGTTCACGTGTAGAC, the “relative binding free energy” value was 0.25 kcal/mol.
The result for TAAGACACGTGTTGAT reads -0.09 kcal/mol; that for TAAGTCACGTGCGTTA, -0.05 kcal/mol; that for TTTGCCACGTGCGGGA, -0.16 kcal/mol.
As for AAGATCACGTGTGAGG, the “relative binding free energy” value worked out at 0.23 kcal/mol.
The result for TTCTTCACGTGGGAGG reads 0.25 kcal/mol.
As to TGGCTCACGTGTATTT, the “relative binding free energy” value came to 0.1 kcal/mol.
The result for ATGGACACGTGGCTGG reads -0.04 kcal/mol.
The result for AGTATCACGTGCGTTG reads -0.09 kcal/mol; that for TTAAGCACGTGGCATG, -0.18 kcal/mol.
On to TTTGGCACGTGCGTCG, for which the “relative binding free energy” value was -0.22 kcal/mol.
Turning to AAGTACACGTGATGGA, the “relative binding free energy” value worked out at 0.18 kcal/mol.
The result for GGGTCCACGTGAGGGC reads 0.1 kcal/mol.
Regarding ATCGGCACGTGAAGGT, the “relative binding free energy” value was 0.2 kcal/mol.
As to ACCGGCACGTGGGGTT, the “relative binding free energy” value was -0.22 kcal/mol.
To AAATGCACGTGAGGTA belongs 0.1 kcal/mol; to GTTTACACGTGAGTAG, 0.31 kcal/mol; to ATGTGCACGTGATGGT, 0.04 kcal/mol.
The result for ATGAGCACGTGTAGAG reads 0.01 kcal/mol; that for ATGAACACGTGTTAGT, -0.11 kcal/mol; that for AGGGGCACGTGGAACT, -0.06 kcal/mol.
The result for CGAGTCACGTGTGGTA reads 0.02 kcal/mol.
TAGGTCACGTGCGGTT: the “relative binding free energy” value is 0.1 kcal/mol.
The result for TGGTCCACGTGGGGGC reads -0.19 kcal/mol.
Regarding ATCTTCACGTGGTGAT, the “relative binding free energy” value worked out at 0.21 kcal/mol.
As for GGGCTCACGTGGATGG, the “relative binding free energy” value stood at 0.35 kcal/mol.
On to TTAGGCACGTGAAATT, for which the “relative binding free energy” value was determined as 0.18 kcal/mol.
The result for AATATCACGTGTTTAT reads 0.26 kcal/mol; that for AAAGGCACGTGGGTCG, -0.16 kcal/mol; that for GTTAGCACGTGAGTAG, 0.29 kcal/mol.
On to TTGGTCACGTGTCTGC, for which the “relative binding free energy” value worked out at 0.18 kcal/mol.
To ATAATCACGTGCGGTG belongs 0.2 kcal/mol; to TGAGGCACGTGTGTAA, 0.06 kcal/mol; to GAAAACACGTGTTGGT, 0.04 kcal/mol.
On to GTGAACACGTGTGGTG, for which the “relative binding free energy” value was -0.03 kcal/mol.
The result for GTAGTCACGTGTCTTA reads 0.22 kcal/mol; that for CGGTGCACGTGTGTGT, 0.03 kcal/mol.
In the case of GGGCACACGTGGTTGG, the “relative binding free energy” value was -0.04 kcal/mol.
To ACGATCACGTGGGTGG belongs -0.02 kcal/mol; to GGAGGCACGTGGGCTC, -0.21 kcal/mol; to TTTTGCACGTGGGCAT, -0.2 kcal/mol.
The result for TTGTACACGTGCATGG reads 0.07 kcal/mol.
The result for CCTAGCACGTGGGTGG reads -0.19 kcal/mol.
TATATCACGTGGTGTT: the “relative binding free energy” value came to 0.04 kcal/mol.
For the sequence AGTGACACGTGCGTGT, the “relative binding free energy” value is -0.16 kcal/mol.
To TGGTTCACGTGTTTGT belongs 0.18 kcal/mol; to GGGGGCACGTGCTGAG, -0.21 kcal/mol.
For the sequence CGCGTCACGTGTGGCG, the “relative binding free energy” value was 0.11 kcal/mol.
As to GGTGGCACGTGAACTT, the “relative binding free energy” value was 0.22 kcal/mol.
As to TAGGACACGTGGTGGG, the “relative binding free energy” value was found to be 0.02 kcal/mol.
To AATATCACGTGGTATG belongs 0.05 kcal/mol; to GTATACACGTGTTATT, 0.1 kcal/mol; to GTGCGCACGTGCGTTG, -0.01 kcal/mol.
For the sequence TCGGTCACGTGGCTTT, the “relative binding free energy” value came to 0.13 kcal/mol.
Regarding GGTAGCACGTGGGACT, the “relative binding free energy” value was -0.11 kcal/mol.
The result for AGGGTCACGTGAGCTA reads 0.25 kcal/mol.
To TTAGTCACGTGTCGAG belongs 0.1 kcal/mol.
To TTTAACACGTGTGACG belongs 0.1 kcal/mol; to AGAGGCACGTGAGAGT, 0.03 kcal/mol.
Turning to AGTAGCACGTGAGCTG, the “relative binding free energy” value was 0.07 kcal/mol.
To GAGAACACGTGGTGTT belongs 0 kcal/mol.
As to TTATGCACGTGTGACG, the “relative binding free energy” value was -0.02 kcal/mol.
The result for GGTTTCACGTGCTTAA reads 0.24 kcal/mol; that for GTAGTCACGTGTATTG, 0.1 kcal/mol.
Take TTAATCACGTGTGATA: the “relative binding free energy” value stood at 0.04 kcal/mol.
The result for AGTTGCACGTGCATAG reads -0.11 kcal/mol; that for GTGAGCACGTGGGTGA, -0.2 kcal/mol.
The result for GGGTTCACGTGTTACT reads 0.34 kcal/mol; that for CGGGCCACGTGAGGTG, 0.05 kcal/mol.
In the case of TATAGCACGTGTGCTT, the “relative binding free energy” value was -0.15 kcal/mol.
To GTGGTCACGTGTCACG belongs 0.18 kcal/mol; to TGGAGCACGTGACAGT, 0.05 kcal/mol; to TTTGGCACGTGAGTAG, 0.21 kcal/mol.
On to TTAGACACGTGTGTTC, for which the “relative binding free energy” value was 0.1 kcal/mol.
As for CAATTCACGTGGTAGG, the “relative binding free energy” value is 0.18 kcal/mol.
With CCTTGCACGTGGTAGT, the “relative binding free energy” value is -0.06 kcal/mol.
The result for GAGAACACGTGGAGGG reads 0.11 kcal/mol.
Take GTCGACACGTGGGGGG: the “relative binding free energy” value is -0.1 kcal/mol.
On to ATAGTCACGTGGCGGT, for which the “relative binding free energy” value was -0.03 kcal/mol.
The result for GGTGGCACGTGTGGGC reads 0.07 kcal/mol; that for AGGGTCACGTGGGTTT, 0 kcal/mol; that for GTGTTCACGTGTATTC, 0.31 kcal/mol.
To CGGATCACGTGGATTG belongs 0.18 kcal/mol; to AAGTTCACGTGATTTA, 0.24 kcal/mol.
Turning to TTTCTCACGTGAAGTT, the “relative binding free energy” value turned out to be 0.33 kcal/mol.
To GTTAGCACGTGTAGAG belongs -0.06 kcal/mol; to ATCGGCACGTGTTGTA, -0.1 kcal/mol; to CTGGTCACGTGTTAAG, 0.25 kcal/mol.
To AGGTTCACGTGTGGAG belongs 0.3 kcal/mol.
The result for TGAGGCACGTGTGTGG reads -0.05 kcal/mol; that for GGGTCCACGTGTCTTG, 0.11 kcal/mol.
As to CGTGGCACGTGTATTA, the “relative binding free energy” value was -0.11 kcal/mol.
As to TGGGGCACGTGTTCTA, the “relative binding free energy” value is -0.04 kcal/mol.
To GGGGTCACGTGATTTT belongs 0.41 kcal/mol; to TTTGGCACGTGGTTGC, -0.12 kcal/mol; to GTCAGCACGTGGAGTT, 0.05 kcal/mol.
As for TGTGACACGTGAGGGT, the “relative binding free energy” value worked out at 0.24 kcal/mol.
To TTGAGCACGTGGTTCT belongs -0.08 kcal/mol.
The result for GGAAGCACGTGCAGGT reads 0.01 kcal/mol; that for TCGGTCACGTGGCCGG, 0.07 kcal/mol; that for GTTGACACGTGGTCGA, -0.11 kcal/mol.
Take AGTGACACGTGTACGG: the “relative binding free energy” value was -0.06 kcal/mol.
Take TATGCCACGTGTTGTG: the “relative binding free energy” value is -0.03 kcal/mol.
GGTTGCACGTGTAGCG: the “relative binding free energy” value is 0.15 kcal/mol.
To TTTTGCACGTGCGGGT belongs -0.04 kcal/mol.
The result for CAAGGCACGTGCGGTA reads -0.04 kcal/mol.
The result for TGGTACACGTGTGAGA reads 0.19 kcal/mol; that for TAAGGCACGTGTAACG, 0.03 kcal/mol; that for TGGGGCACGTGGTTCC, -0.12 kcal/mol.
Regarding GTAATCACGTGGTGTT, the “relative binding free energy” value is 0.05 kcal/mol.
The result for ATCGTCACGTGCGTGG reads -0.02 kcal/mol; that for ATGGGCACGTGAAAGG, 0.1 kcal/mol; that for GGTAGCACGTGTTTCT, 0.03 kcal/mol.
For CGCGGCACGTGGATTG, the “relative binding free energy” value is 0.14 kcal/mol.
To GGGGGCACGTGCGATG belongs -0.05 kcal/mol; to TTGTGCACGTGGTGAG, -0.06 kcal/mol; to TTAAGCACGTGGGAGA, -0.14 kcal/mol.
The result for CGATACACGTGGGGTA reads -0.08 kcal/mol; that for GGTAACACGTGGGGAT, 0.04 kcal/mol.
With TGGATCACGTGTGGCT, the “relative binding free energy” value was determined as 0.13 kcal/mol.
ACGGACACGTGAGTGG: the “relative binding free energy” value was found to be 0.18 kcal/mol.
To TTTATCACGTGGGATC belongs 0.21 kcal/mol; to GGGAGCACGTGGTTTA, -0.12 kcal/mol.
